Measured values as given in the supplement of paper PMC12217912.
This is one part of the list. The full chains were built here from the parent and the listed change. Values near 0.05 are background.

B1: TEV protease; numbered along this chain (parent)
chain: MGESLFKGPRDYNPISSSICHLTNESDGHTTSLYGIGFGPFIITNKHLFRRNNGTLVVQSLHGVFKVKDTTTLQQHLVDGRDMIIIRMPKDFPPFPQKLKFREPQREERICLVTTNFQTKSMSSMVSDTSCTFPSGDGIFWKHWIQTKDGQCGSPLVSTRDGFIVGIHSASNFTNTNNYFTSVPKNFMELLTNQEAQQWVSGWRLNADSVLWGGHKVFMVKPEEPFQPVKEATQL

Variants of: B1
Experiment: raw area under fraction-flipped curve 0-4 h after induction (AUC4h, not background-subtracted), DNA-recorder readout of cleavage of the substrate (dimensionless); higher = more cleavage of the substrate by the protease variant
Settings: temperature: 34 °C; time window: 0-4 h after rhamnose induction
Protocol: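 In vivo DNA recorder in E. coli TOP10(DE3) ΔrhaA at 34 °C. Each TEVp single-site mutant (parent TEVp 0) is paired with a single-site variant of the 7-mer TEVs (canonical ENLYFQ|S). The substrate sits between flexible linkers in a Bxb1-sfGFP-TEVs-SsrA fusion, so cleavage stabilises Bxb1 and speeds flipping of a recombination array, read by NGS. The value is the raw area under the fraction-flipped curve over 0-4 h after rhamnose induction (AUC4h), with ≥20 reads per time point. It is not background-subtracted; inactive controls average about 0.047.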
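Note: Bxb1 expression induced with 0.2% (w/v) L-rhamnose at OD600 near 0.5, cultures sampled hourly, flipped fraction per protease–substrate barcode pair counted by paired-end Illumina sequencing.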

Variant	area with substrate ENLAFQS	area with substrate ENLCFQS	area with substrate ENLDFQS	area with substrate ENLEFQS	area with substrate ENLFFQS	area with substrate ENLGFQS	area with substrate ENLHFQS	area with substrate ENLIFQS	area with substrate ENLKFQS	area with substrate ENLLFQS	area with substrate ENLNFQS	area with substrate ENLPFQS	area with substrate ENLQFQS	area with substrate ENLRFQS	area with substrate ENLSFQS	area with substrate ENLWFQS	area with substrate ENLMFQS	area with substrate ENLTFQS	area with substrate ENLVFQS
E25P	0.0558	0.0625	0.0685	0.055	0.0599	0.0455	0.0571	0.0525	0.0607	0.0619	0.0666	0.0526	0.0627	0.059	0.0654	0.0646	–	–	–
N45I	0.0491	0.0679	0.0619	–	0.0434	0.0478	0.0574	–	0.0557	–	0.0456	0.0524	0.0539	0.0771	0.0525	–	0.0673	–	–
N45H	0.0664	0.0554	0.0637	0.0614	0.0691	0.0465	0.0607	0.0744	0.0651	0.06	0.0619	0.0447	–	0.0493	0.0605	0.0431	–	0.0707	–
C20M	0.0575	0.064	0.0601	0.0536	0.0878	–	0.0729	–	0.0733	–	0.0654	0.0569	–	–	0.0771	0.055	0.0656	–	–
C20F	0.0319	0.0568	0.0625	0.0529	0.0648	–	0.0562	0.0562	0.058	0.0444	0.0521	0.0562	0.0535	–	0.0482	–	–	–	–
G28C	0.0545	0.0634	0.0568	0.0568	0.0869	0.076	0.0582	0.0666	0.0702	–	–	0.0576	0.0595	0.0511	–	–	0.0615	–	–
I15C	0.0659	0.0277	0.0541	0.0662	0.0626	0.0552	0.0682	0.0629	0.068	0.061	0.0698	0.0589	0.0635	0.0631	0.0618	0.0633	–	–	–
I15S	0.0596	0.0677	0.0645	0.0432	0.0866	0.0609	0.0562	0.0701	0.0626	0.0509	0.0398	0.0645	0.0648	0.0644	0.0531	–	0.0743	0.0584	0.0689
I42Y	0.05	0.0471	–	0.0433	0.0549	0.0394	0.0395	0.0782	0.0459	0.0447	0.0562	0.0589	0.0535	–	0.0423	0.0234	–	0.0513	0.0311
I42C	0.0603	0.0638	0.0591	0.0615	0.0755	0.0442	0.0704	0.0866	0.0738	0.0617	0.0568	0.0524	–	0.0635	–	0.0577	0.0583	–	0.099
T23R	0.0713	0.0743	0.0629	–	0.0835	–	0.0647	0.106	0.0789	0.0644	–	0.0577	–	0.0544	0.0702	0.0659	–	–	–
T23S	0.0344	0.0633	0.0611	0.0773	0.0731	–	0.0734	0.0802	0.0716	0.0662	0.0613	0.058	0.0631	0.072	0.0537	–	0.0747	–	0.0959
T23I	0.052	0.0652	0.0673	0.057	0.0874	0.0666	0.0706	0.0467	0.0636	0.058	0.0552	0.0525	0.0819	0.0697	–	0.113	–	–	–
T44K	0.0501	–	0.0556	0.056	–	–	0.0529	0.0667	0.0523	–	0.0517	0.0568	0.0615	–	0.0373	0.0483	–	–	0.0448
T44D	0.0422	0.0575	0.0492	0.0327	0.043	0.0505	0.0449	0.0507	0.0392	–	0.0589	–	–	0.0427	–	–	0.0208	–	–
S17F	0.0887	0.0723	0.0609	–	0.0798	–	0.0569	0.0864	0.0825	0.063	0.0522	0.0548	–	0.0588	0.0597	0.0591	0.0719	–	0.0702
S17Q	0.0644	0.0675	0.0742	0.0575	0.0829	0.053	0.073	0.0897	0.0879	0.0687	0.0741	0.0469	0.064	–	0.069	0.0644	–	–	0.0879
S17D	0.0673	–	0.0639	0.0348	0.088	0.0477	0.0718	0.0835	0.085	0.078	0.0646	0.0666	0.0654	0.0875	0.0679	0.0609	0.0537	–	0.081
I19H	0.0556	–	0.0544	0.0604	0.062	0.074	0.0536	0.0679	0.0592	–	0.0627	0.0604	0.0441	0.0603	0.0613	0.058	0.0556	0.0761	0.0754
H21W	0.0518	–	0.0411	0.0421	0.0756	0.067	0.0663	0.0835	0.0788	0.0353	0.0596	0.0747	0.102	0.0668	0.0513	0.0726	0.0726	–	0.0954
H21N	0.0609	0.0508	0.0609	0.0686	0.0812	0.0928	0.0587	0.0674	0.0713	0.0649	0.0686	0.0417	–	0.0609	0.056	0.0664	0.0627	–	–
H21G	0.0635	0.0699	0.0518	0.0541	0.0801	0.065	0.0629	0.0865	0.0647	0.075	0.0579	0.0612	0.0793	0.0547	0.0607	0.068	0.0631	0.0477	0.0754
H21D	0.0555	–	0.0704	0.051	0.061	0.0347	0.0569	–	0.0603	0.0565	0.0424	0.0508	0.0509	0.0738	0.0603	0.0526	0.0631	–	–
